Read counts are not given, so values of variants with three or more changes are uncertain.
B1: OR4K15 (parent)
chain: GUUAACGGUCAUAGGCCAUGGAAACUAGGAGCACCAUUUCGCUGCCAGUGAAGAAAUGAACAAAGAAAAUCUGGGCCAGGCAGGCAUCAAAAGAAAUAGUCUUGCGCUCAACCAGAAAGUCUGUAAUCAUUUUAAGGGUA
B2: LINE1-full (parent)
chain: UACGUAGGUGGUUUUCCCCUGAUAGUGCUAAGGGGGCCUGGAAGUUUGGACUGGGCAGAGCUCAACACAGCGUGGCAAAGUGGCUGUGGCUAGACUGCCUCUCUGGAUUCCUCGUCACUCAGCAGGGCAUCUCUGAGAGAAAUGCC

Variants of: B1
Test: self-cleavage, relative activity (ratio to wild type); higher = more cleavage; in vitro, sequencing; the parent is a self-cleaving ribozyme

Variant | self-cleavage
U2C A4G U39A | 1.36
U2C A33G A140G | 0.82
G1A A18G A60G | 1.47
U2C A11G A68G A116G U132C A140G | 0.86
U2A A11G A82G | 0.67
U2C A52G A55U A66G | 0.77
U2C A30G A66G U72C U108G A129U | 0
U2C A30G A95G U130C | 0.97
U2C A18G A78U A91G C107U U124C | 0.01
G1A A90G A111G | 0.03
U2C A30U A116G | 0.75
U2C A33G A54G A92G A96G A125G | 0.1
U2C A5G A96G U124A | 0.5
G1A A47G A62G A111U | 0.16
U2A U57C A94G U130C | 1.6
U2C A23G A67G C121A U122C | 1.27
U2A A30G A36G | 1.37
G1A A18G A52G A68G U70C A111G | 0.08
U2C A22G A60G A69G A89G | 0.59
U2A U37C A82G A94G A116G A118G U133C | 0.05
U2A C42U A95G | 0.53
U2A A60G U133C | 1.79
U2A A18C U26C A94G U120C | 0.52
U2C A54G G80C | 0.12
U2C A13G A62U U87C | 0.63

Variant | self-cleavage
G1A G53A U100C | 2.09
U2C A18U C85G A89G A94G A95G | 1.07
G1A A60G A62G U100C | 2.14
U2C A11C U49A A111G A135G | 0
U2A C16U U102C U131C | 0
U2C A13G U39C A51G | 0.51
U2C A47G C101U | 0.29
U2C A4G U43C | 0.48
U2C A47G A51G U130C | 0.46
U2C A54G A68G | 1.47
U2C A4G A55G A110U | 0.71
U2C A23G A33G G73C A110G | 0.05
U2C A23G A51G C105A | 0.04
U2C A47G A62G A64U U70C U102G U122C | 0.15
U2C A30G A59G | 1.11
U2C A27G A95G | 1.44
U2C A47G A51G A64G U72G G93A U102C | 0.25
U2C A52G U70C A82U U132C | 0.13
U2C A27U A54G A63U U97G U108C | 0.03
U2A A18U A52G | 0.77
U2C A5U A22U U100C | 1.07
U2C A24G A30G A47G A95C U100C | 0.99
U2C A51U U108C | 0.03
G1A G31C U122A | 0.95

Variants of: B2
Test: as above

Variant | self-cleavage
G114U U115C A142G | 1.61
U132C U134C A140G | 2.05
A124G G127U A142G | 0
U115A A138G U143A | 2.06
U115C U119C U132C | 1.15
U109G U134G A140G | 0.15
A129G A142G U143C | 1.86
C131A A140G A141G | 1.25
C116U U134A A138G | 1.39
U112C A129G U134C | 0.59
U115G U132C A142G | 1.25
U109A G114A U119A | 1.86
U108C A129G C133U A136U | 2.51
U112C A140G A141G | 1.12
A121U A136G A142G | 1.72
A117G G126A U134C A140G | 1.87
U108C A141C A142G | 2.21
A124G U132C A141G | 2.34
A121U G122A A138G | 0.95
A129U U134A A140U | 0.49
U112C A117G A138U | 1.41
A117G U130A A140G | 0.43
G125A U132C U143A | 1.17
A117G U119C U143C | 1.6

Variant | self-cleavage
A121G A136U A138U | 0.99
U108C U134C A136G | 2.53
A107U A117G A124U | 1.8
U119A A121U U143A | 1.26
U115A A117G A136G | 1.41
A121U U130A A142C | 2.13
A129G A138G C145U | 2.22
A138G A141G A142G | 1.41
A138G A141G A142U | 0.89
U115A U132C A141G | 2.06
U132C A141G U143A | 1.2
U130C A136U A138G | 2.63
C113A G127U U132C U143C | 1.59
A107G U134C A140U | 2.59
U115C A124G A140U | 1.31
U134C A136G C146U | 1.7
A117G U130C G137U A138U | 1.88
U108A A138U U143C | 1.55
U112C G122U A129G | 1.3
U115C A129G U143C | 0.71
U112A A129C U132C A140G | 1.15
U109A U115C A142G | 1.56
A107U U119C C120U | 1.6
A117G U119A U143A | 1.3

Variant | self-cleavage
A121U A140G A142G | 1.62
G114A U115C U119C C128U U132C | 1.84
U119A A141G U143A | 0.73
A121U U132C U134C | 1.81
U132C A136U A141G | 1.89
U108C A124G A136G | 0
U132C U134A A142G | 0.78
A117G A138U A142U | 2.14
A124G A136G A141G | 1.67
A129U U130C U132C A142C | 0
U108C A142G U143A | 1.7
U109C U115C U134A | 0.52
U108A A136U A140G | 1.37
U112C G127U C128U A136U | 1.35
C123U A124G A141G | 1.36
A107U A121G U130C | 1.64
U119C U134A A140G | 0.62
U112C U130C U143C | 2.53
U112C G127U U130A | 0.65
U109C U134C A142G | 1.74
A121G A138G G144A | 1.67
A121U A138G A140U | 1.47
U130C A138G C146U | 2.04
U112C A136G A140G A142G | 1.72

Variant | self-cleavage
U112C C113U U130C | 1.15
C113U A117G A129G U134C | 1.34
C111U U112C U115C A138G G139A | 1.62
A121G G125A U132C | 0.74
A129G U134A C146A | 1.02
U119C A124U U143C | 1.81
A136G A141U A142G | 1.23
U112C C116U C145U | 0.94
A136G A138G A141G | 2.04
U132C G135A A138G | 1.91
A117U A121G U132C | 2.04
A107U U115C A124U | 1.78
A117G G127U A142G | 1.25
U119G U132C A141G | 1.99
A121G A124U A140G | 2.38
C113U U119C A142G | 1.5
U109A U112C C133U | 1.17
G126A U132A A142G | 1.84
C113A A117U A124U | 1.33
A117U A129G A136G | 1.8
U130A G135A A140G | 1.61
U130C U134C G144A | 1.73
A117G A138G A142G | 0.89
U130C U134C A141G | 2.18

Variant | self-cleavage
A124U U132C C146A | 1.56
U108C U130C A138G | 1.53
A121U A141G U143C | 1.49
U132C A140G G144A | 1.49
U115G A117U A121G | 0
U112A U115C G126U | 1.3
U108C U132C A136G | 1.53
A140G A142G U143A | 1.15
A107U U115C U143A | 2.43
U109C U119A A129U | 1.59
A121G A124U A141G | 1.63
A121U A124C U134C | 1.68
A124U U132C U134C | 2.51
U115C A129U U132C | 2.11
U112C A129U U130A | 1.62
U109C A117U A136G | 2.28
U115A A117G A121G | 1.84
U108C U119C A121G | 0
U108C A121G U130A | 1.48
A107U U119C A124G | 0.68
A107U A121U A142G | 0.91
U115C U130C A140G | 2.85
